Sequences and labels used below:
B1: LINE1-mini (parent)
chain: GGCAGAGCUCAACACAGCGUGGCAAAGUGGCUGUGGCUAGACUGCC

The values below come from the RNAGym collection of RNA variant scans (doi:10.7554/elife.90254).

The source gives no read counts; variants with many changes may rest on few reads.

In this series the parent is B1. The series can be described thus: self-cleavage, relative activity (ratio to wild type); higher = more cleavage; in vitro, sequencing; the parent is a self-cleaving ribozyme.
Regarding G2A A4U C15U G30A U32A, the self-cleavage turned out to be 0.11.
As for C3U A4G G19C G30C G35U, the figure is 0.04.
For C10U A26U G29C G30A the value was 0.74; for C10A A11C U34G C37G, 0; for G2U C13U C37A, 0.06.
For G5A C10U G19U U32G C37U the value was 0.01; for C13U G17C C23A G36A, 0.21.
In the case of A4G C31U C46A, the self-cleavage turned out to be 0.18.
Consider A11C A12G U38C, for which the self-cleavage was 0.02.
For C18U C45A C46U the value was 0.08; for C15U G30U U32A, 0.03.
As for A4G U32G U34A, the figure is 0.08; as for C13G C18A C37U A39U, 0.
As for G2A C10U U34G, the figure is 0.11.
Consider G29C U34A U38G C45A C46G, for which the self-cleavage was 0.01.
As to C3A A14U G36C, the self-cleavage was 0.28.
As for A4C U9G C10U A25C G35A, the figure is 0.02; as for G22A A41U C46U, 0.25.
Take U9C A26C C45A: the self-cleavage was 0.03.
As for C10A C13G A14U, the figure is 0.03.
As for A12C C23G G29A U38C, the figure is 0.02.
For A11C C15G C18U U20A A41U the value was 0.01; for G17C G21U G30C C31G, 0.06; for C18A C31G G33U A39G G40A, 0.03.
As for C3G U9C C31G G33U, the self-cleavage was 0.01.
For A11C G17C G19A G36C the value was 0.01; for A11G A26G C42U, 0.06; for G5U G35U C45U, 0.06.
As for G2C G7C G17C G19C, the figure is 0; as for C3U A12U C15A G17U U20G C37A, 0.01; as for G5A G19U A24C C37G, 0.02.
For G1U C18A G22U C31A the value was 0.05.
As to C15G G40A G44U, the self-cleavage was 0.05.
As for U9C G17U A24U, the figure is 0.03.
As for C13U U38A G40U, the figure is 0.08; as for G7U U9G C15U, 0.04.
For G17A U28A U32G C37A C45G the value was 0.03; for C3G U9A C10G U34A A41U, 0.05; for C8U G22C G33U, 0.06.
Take G22A G27C C31G: the self-cleavage was 0.04.
For G19C C23U A25C G33C U38A the value was 0.02.
As for G2U C3U G36A, the figure is 0.3; as for G5U G21C A26G C42U, 0.02; as for G5U A16C C18U C31A G40A U43A, 0.03.
With C8G U9C A39C G44U, the self-cleavage is 0.08.
As for G22A G33U C37A, the figure is 1.89; as for C10A U34G G44C, 0.01; as for C3A G5U C15G G27C U38G A41U C46U, 0.01.
As for G1U C10G C46U, the figure is 0.02; as for A11U C13U G36C, 0.09.
As to A6U C18G G19A C31G U43C, the self-cleavage came out at 0.04.
In the case of A26C U34C A41C, the self-cleavage came to 0.03.
As for C18A G19C A41G, the figure is 0.15; as for C3U G5C G35U C42U, 0.01; as for G2U C31A C37G, 0.02.
On to C13U G17A G19A A24C U43A C46A, for which the self-cleavage amounted to 0.01.
As for A4C A16G G27C U43A, the figure is 0; as for C3A C10A A24G C42U, 0.02; as for C18G G22U C45G, 0.03.
As for C3A C15A A25U U32G U43C, the figure is 0.12; as for G17U G19U C46G, 0.11; as for G30C U32A A41G C45U, 0.03.
For G1A A11G A24C U32G the value was 0.03; for A12G A24C C31U G33C G35C G44A, 0.37; for G1C U9A C10G A16C C23G U34G, 0.
Take G17U A24G A25C G30U A39G: the self-cleavage amounted to 0.08.
As for U9C C13U C15A G30A U38G, the figure is 0.01; as for G2A G19C G29C C42U, 0.06; as for G17A G19C C31A U38G, 0.01.
On to G7C U20A U43A, for which the self-cleavage worked out at 0.19.
For G2C A11G G30U the value was 0.02; for U9A A16G G17A G22A U32G G40A G44U, 0.02; for G1U C8U G17A C31A G40A, 0.02.
For C15G G17A U20A G22C G27C the value was 0.01.
For C3A C10A C18G the value was 0.05.
Turning to G7A C13A G27U C31A A39G, the self-cleavage amounted to 0.7.
As for C3U U9A G17A A25G U28A A41C C45G, the figure is 0.05.
For C13U C15G U20A the value was 0.01.
As to C8A A12C G30A C37A, the self-cleavage came to 0.01.
As for G2U A11U G22A, the figure is 0.01; as for C8G G30U A39G, 0.06.
On to G5U C31A G36U, for which the self-cleavage came out at 0.05.
As for A4G G30C G36A A39G G40U, the figure is 0.11; as for A16U G33C G35U G36A C42G, 0.02.
In the case of C13G G17U U20C, the self-cleavage is 0.01.
As for C3A U9A C10U G27A C31G, the self-cleavage was 0.06.
For C8A U38A G44A the value was 0.05.
For G2A C3U G7C A11G G30U C31U the value was 0.02; for A6C C10A A39G, 0.03; for C3U A12C A24U G27U C31U, 0.03.
For A11G G22C U34C C37U the value was 0.01; for G5U G17U G19A G27A U43G, 0.05.
For the variant A12G C23A G29U U38A, the self-cleavage amounted to 0.
As for G2A C8U C13U G36U A41G, the figure is 0.03.
As for A11C A12U G30A, the figure is 0.08; as for A26C G36C U38C U43G C45G, 0.15; as for C23U U28A U43C, 0.
For A11C A12U A14U G33C the value was 0; for G21A G22C C31A G36U C46G, 0.05; for C8U A14U G22U C23A G27A, 0.03.
Turning to U9C G17C G36C U38A C46U, the self-cleavage is 0.01.
For C8A A11U G21C the value was 0.03.
For the variant A6C U20A A39G, the self-cleavage stood at 0.1.
As for C18U A25U U38G A39G, the figure is 0.02; as for U9A A16U G17U U28A C42A, 0.04; as for A11G A14C G21C G29A, 0.02.
As for A16C G17C C31G G40U, the figure is 0.03.
In the case of A24U G36A G40C, the self-cleavage is 0.13.
For G1U G21A A25U G35A C37G, the self-cleavage was found to be 0.45.
As for G1A A11U G17C C46U, the self-cleavage is 0.31.
Consider G2A A6C G21U G35U G44U, for which the self-cleavage came to 0.09.
As for G5A G7U G22U, the figure is 0.03.
For G1A A16U C18A A26G G35A C46A, the self-cleavage worked out at 0.03.
As for A25C G40U G44C, the figure is 0.04.
Consider A6G C13G A25C U32A, for which the self-cleavage turned out to be 0.01.
As for G19U C23A A24U U32C G33A, the figure is 0.04; as for A16U C23A G29U, 0.42.
For C10A A14U U20A A25U G27C U32C C42U C45A the value was 0; for A6C U9G G27C G33U C42A, 0.06.
As to U9G C15A G21C G30A U32G, the self-cleavage is 0.04.
As for C13U C15G G17C U20A C42U, the figure is 0.01; as for G2A U34C G44A C45U, 0.09.
As for G1U C15A C37U C46A, the figure is 0.03; as for C3A A4G C18G G21C G30U C45U, 0.08.
In the case of A14U A25U C31U U43A, the self-cleavage stood at 0.02.
As for A12U C18U A39U, the figure is 0.03; as for A12U C23A U28C C31U, 0.5; as for G2A A4U G5A C8G C18A G44A, 0.03.
On to C13U A24G U28G, for which the self-cleavage is 0.07.
For C10A G22C C37U the value was 0.01.
As for G21A G33C C46A, the figure is 0.07.
As for G1U A16C G44C, the figure is 0.05; as for A4U A11C A25U, 0.01.
For C8U G21A U28A, the self-cleavage amounted to 0.32.
For G27C U28A G36U G44C C45U the value was 0.02; for C8U G27U G36U, 0.01; for A4G C18G G30U U32G G36C U38G C45G, 0.14.
For A6U A11G G21A G35U A41C G44A C45U the value was 0.02; for C37U A39G C46U, 0.
For G1A A25G U34A the value was 0.08.
Consider C3G A16G C45G, for which the self-cleavage is 0.06.
As for G5A G27U C31G C37G, the figure is 0.02; as for G2C A12C A16U G21C C45G, 0.01; as for G1A A12G C15A, 0.07.
For C8U U28C G30C C42G the value was 0.1; for G1A G19C G35U, 0.09.
For A12C G21U G36A G40U the value was 0.17; for C13U C18G A26C C31A, 0.17.
On to G1C C3G G27C G30C C42A, for which the self-cleavage was 0.
As for G7A U9C G17A, the self-cleavage amounted to 0.04.
As for G1U C8G G22U, the figure is 0.03; as for U9C G19A C37G, 0.
For the variant C13U G21U A25U C31G G44C, the self-cleavage was found to be 0.06.
As for G1A G2U G5U C10A, the figure is 0.13.
As for A16U G35C G40U, the figure is 0.1.
As for G2A G5A G17C C23G G36U, the figure is 0.24.
In the case of G2U A11U G21A, the self-cleavage was 0.02.
For C13A C18A G30U the value was 0.06; for A16C C18U G19A, 0.11.
For U20G C31G U43A G44C the value was 0.01.
For C8G G29U C37U the value was 0.07; for A11G G29U G35U A41G, 0.01.
Regarding A12U G21C A26U U34G G35C C37A, the self-cleavage amounted to 0.01.
As for A11G G27U C42U, the figure is 0.02; as for G2C G21U C31U, 0.08.
As for U28C G30A G33U, the figure is 0.08.
